# Reference: PubChem BioAssay AID1508642 (National Center for Advancing Translational Sciences (NCATS), 2021)
# In all, about 43,000 compounds went through this assay and about 200 (0.47%) were called active. About 12% were inconclusive and are not listed. Calls follow the shape of the dose curve; as a rule, active = well fitted cell-killing curve with a large enough effect; inconclusive = small, poorly fitted or top-dose-only effect, or effect the other way; inactive = flat fitted curve, though single readings scatter. The list shows a part of the results.
# Assay: Cell viability qHTS assay in S16 Pmp22-F2sN cells; also: nearly all actives have a fitted effect of over 65% in size
# Details: S16 Pmp22-F2sN Schwann cells (luciferase reporters placed in the Pmp22 gene) viability, CellTiter-Glo, 24 h; series mostly up to 57.5 µM; activity change, negative = cytotoxicity: at the top concentration
# Outline: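 Seed 500-1,000 S16 Pmp22-F2sN cells per well in phenol-red-free DMEM with 10% heat-inactivated FBS; pin-add 23 nL compound; incubate 24 h at 37C; add CellTiter-Glo, wait 15 min protected from light; read luminescence.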
# % is scaled to controls: 0 for no effect and ±100 for the full control effect.
row,SMILES,"activity change, negative = cytotoxicity"
1,COCCCn1c(=N)c(C(=O)NC2CCCC2)cc2c(=O)n3cccc(C)c3nc21,inactive: 8.41%
2,CCOc1ccccc1NS(=O)(=O)c1cc2[nH]c(=O)c(=O)[nH]c2cc1C,inactive: 6.77%
3,COc1ccc(Cn2ccc3nc(C)c(C(=O)Nc4cc(OC)c(OC)c(OC)c4)cc3c2=O)cc1,inactive: -3.47%
4,CCOC(=O)c1cc(-c2ccc(C)cc2)n(CCCC(=O)Nc2cc(C)ccc2C)c1,inactive: -15.6%
5,CCOc1ccc(C(=O)Nc2ccc3oc(-c4ccc(C)cc4C)nc3c2)cc1Br,inactive: 5.99%
6,CCOc1ccc(NC(=O)Cn2c(=O)n(CCCCC(=O)NCCc3ccc(Cl)cc3)c(=O)c3ccccc32)cc1,inactive: 19.9%
7,CCc1ccccc1NC(=O)CC1NCCNC1=O (configuration not stated),inactive: -0.548%
8,O=C(C1CCC(CNS(=O)(=O)c2ccc(Br)s2)CC1)N1CCN(c2ccc(F)cc2)CC1 (configuration not stated),inactive: -5.65%
9,O=C(Nc1cccc(Cl)c1)N1CC2CCCN2c2ccccc21 (configuration not stated),inactive: -20%
10,COc1ccc(-c2nc3n(n2)C(c2ccccc2OC)C(C(=O)Nc2cccnc2)=C(C)N3)cc1 (configuration not stated),inactive: -11.3%
11,CCOc1ccccc1NC(=O)c1c2c(nc3ccccc13)C(=O)N(C1CCCCC1)C2,inactive: 0.485%
12,CCOc1ccc(-n2c(SCC(=O)NCc3ccccc3)nc3n[nH]c(C)c3c2=N)cc1,inactive: -9.12%
13,CCOC(=O)N1CCc2c(sc(NCc3ccc(N(CC)CC)cc3)c2C(=O)Nc2cc(OC)ccc2OC)C1,inactive: -19.6%
14,Cc1ccc(-n2c(=O)c3ccc(C(=O)NCc4ccco4)cc3n(CC(=O)Nc3ccc(C)c(F)c3)c2=O)cc1,inactive: -2.39%
15,Cc1ccc(NS(=O)(=O)c2ccc3c(c2)N(C)C(=O)CC(=O)N3C)cc1Cl,inactive: -10.3%
16,COc1ccc(CNC(=O)c2ccc3c(c2)nc2n3CCCCC2)cc1,inactive: 2.94%
17,CCC1CN(C(=O)N2CCC(C(=O)N3CCN(c4ccccc4)CC3)CC2)c2ccccc2O1 (configuration not stated),inactive: -1.49%
18,COc1cccc(C(=O)N2CCCCC2CCN2CCCCC2)c1 (configuration not stated),inactive: 8.76%
19,CCc1ccc(-n2nc(CO)c(C(=O)NCCc3ccccc3)n2)cc1,inactive: -3.26%
20,O=C(CSc1nc2c([nH]c3ccccc32)c(=O)n1-c1ccc(F)cc1)N1CCc2ccccc21,inactive: 0.451%
21,Cc1cc(C)cc(-n2c(SCC(=O)N3CCC(C)CC3)nc3c([nH]c4ccccc43)c2=O)c1,inactive: 1.93%
22,Cc1ccc(C)c(N2CCN(C(=O)Cc3c(C(=O)O)c(C)cn3C)CC2)c1,inactive: -3.27%
23,COc1ccc(OC)c(NC(=O)c2cccc3c2C(=O)N(C2CCCCC2)C3)c1,inactive: -24.8%
24,Cc1cccc(Cn2c(CNS(=O)(=O)c3ccc(C(C)C)cc3)nc3cccnc32)c1,inactive: 16.3%
25,Cc1oc(-c2ccccc2F)nc1CS(=O)CC(=O)NC(C)C (configuration not stated),inactive: 6.77%

row,SMILES,"activity change, negative = cytotoxicity"
1,CCOc1ccc(CCNC(=O)c2nnc(Cc3ccc(Cl)cc3Cl)o2)cc1OCC,inactive: 9.89%
2,COc1cc(OC)c(N(C)C(=O)c2c(C)oc3ncnc(N4CCCCC4)c23)cc1Cl,inactive: -3.16%
3,O=S(=O)(c1ccc(F)cc1)N(CC(O)Cn1c2ccccc2c2ccccc21)c1ccccc1 (configuration not stated),inactive: 1.75%
4,COc1ccc(C(=O)NCC(c2ccc3c(c2)OCO3)N2CCN(C)CC2)cc1 (configuration not stated),inactive: 4.52%
5,COc1ccc(NC(C)=O)cc1NC(=O)C1(c2cccs2)CCOCC1,inactive: 1.7%
6,CCOC(=O)c1cc2c(=O)n3ccccc3nc2n(CC2CCCO2)c1=NC(=O)c1ccccc1C (configuration not stated),inactive: 3.69%
7,CCn1cc(/C=C(\NC(=O)c2ccc(C)cc2)C(=O)NCCCn2ccnc2)c2ccccc21,inactive: 14.5%
8,CCOc1ccc2nc(N3CCN(C(=O)c4ccco4)CC3)sc2c1,inactive: -16.9%
9,CC(=O)c1ccc(NC(=O)COc2ccccc2-c2nc(-c3ccc(C)cc3)no2)cc1,inactive: 2.4%
10,O=C(NC1CC(=O)N(c2cccc(F)c2)C1)c1ccc2c(c1)OCO2 (configuration not stated),inactive: 0.36%
11,Cc1ccc(OCC(=O)Nc2ccccc2C(=O)OCc2cc(=O)n3ccsc3n2)cc1,inactive: 1.31%
12,O=C(C1CCC(Cn2c(=O)c3sccc3n(Cc3ccccc3)c2=O)CC1)N1CCOCC1 (configuration not stated),inactive: -4.22%
13,Cc1ccc(-c2nnc(Nc3ccccc3O)c3ccccc23)cc1,inactive: -0.712%
14,Cc1ccc(Cl)cc1N1CCN(C(=O)c2cnn(C)c2C2CCN(C(=O)OC(C)(C)C)CC2)CC1,inactive: -29.7%
15,O=C(Nc1cc2c(cc1C(=O)c1ccccc1Br)OCCO2)c1ccccc1,inactive: 17.6%
16,CCc1ccc(-n2c(=O)c3sc4ccccc4c3n(CC(=O)N(CC)Cc3ccccc3)c2=O)cc1,inactive: -9.7%
17,O=C(Nc1ccc2nc(SCC(=O)N3CCc4ccccc43)sc2c1)c1ccccc1,inactive: 3.75%
18,Cc1ccc2sc(-c3ccc(N)cc3)nc2c1,inactive: -2.18%
19,CCC(=O)N1CCc2cc(CNC(=O)c3ccccc3C)ccc21,inactive: -17.3%
20,CCCCNC(=O)CSc1nc2nc(C)c(Cc3c(F)cccc3Cl)c(C)n2n1,inactive: 23.3%
21,CCc1cc(C(=O)Nc2c(C)nn(Cc3ccccc3Cl)c2C)no1,inactive: -29.2%
22,Cc1cc(C)c(NC(=O)CN2C(=O)c3cccnc3Sc3ccccc32)c(C)c1,inactive: -6.53%
23,O=C(CCC(=O)N1CC2CCCN2c2ccccc21)NCc1ccc(F)cc1 (configuration not stated),inactive: 13.6%
24,CCOc1ccccc1CNC(=O)c1ccc(CS(=O)Cc2cccc(Cl)c2)o1 (configuration not stated),inactive: -0.941%
25,Cc1cccc(NC(=O)CSc2nnc(NC(=O)Nc3ccccc3)s2)c1C,inactive: -4.66%

row,SMILES,"activity change, negative = cytotoxicity"
1,CSc1ccc(C2C(C(=O)Nc3ccccc3)=C(C)Nc3nc4ccccc4n32)cc1 (configuration not stated),inactive: -2.04%
2,CCc1ccc(NC(=O)CC2C(=O)NCCN2C(=O)c2ccc(F)cc2)cc1 (configuration not stated),inactive: 19.4%
3,CCc1ccc(NC(=O)NCCc2c(C)nn(C)c2C)cc1,inactive: -15.9%
4,COc1cccc(NC(=O)CSc2nnc(-c3cccc(OC)c3)o2)c1,inactive: -7.64%
5,Cc1ccc(NC(=O)CSc2ncc(-c3ccccc3)[nH]2)cc1,inactive: -5.77%
6,CSc1ccc(CNC(=O)Cn2nc(N3CCN(c4ccccc4)CC3)ccc2=O)cc1,inactive: 17.8%
7,Cc1ccccc1CNC(=O)C(=O)NCC(c1ccco1)S(=O)(=O)c1cccs1 (configuration not stated),inactive: 3.33%
8,CCCCN(C)CCCNC(=O)C1CCN(S(=O)(=O)CCC)CC1,inactive: -2.6%
9,Cc1oc2ncn(C)c(=O)c2c1C(=O)N1CCN(c2cccc(C(F)(F)F)c2)CC1,inactive: -15.1%
10,Cc1oc(-c2cccc(Cl)c2)nc1CN1CCC(C(=O)NC(C)c2ccccc2)CC1 (configuration not stated),inactive: -9.63%
11,CCN(CC)c1ccc(CNCCCSc2nnnn2C)cc1,inactive: 4.78%
12,COc1ccc(CNC(=O)c2cc(Nc3ccccc3C)nc3ccccc23)cc1,inactive: 19.1%
13,CCN(c1ccccc1)S(=O)(=O)c1nnc(NC(=O)c2ccccc2OC)s1,inactive: -0.405%
14,CCOCCc1nn2c(=O)cc(COC(=O)c3ccc(NC(=O)C4CCCCC4)cc3)nc2s1,inactive: -24.2%
15,CCc1ccccc1NC(=O)CCCSc1nc(-c2ccco2)cc(C(F)(F)F)n1,inactive: -1.88%
16,COc1ccc(NC(=O)C2=CC(c3ccco3)=NS(=O)(=O)N2C)cc1OC,inactive: 8.88%
17,CCCN(C(=O)c1cn(C)c(=O)c2cc(OC)c(OC)cc12)c1ccc(CC)cc1,inactive: -15.2%
18,Cc1nn(-c2ccccc2)c(OC(=O)c2ccccc2Br)c1S(=O)(=O)c1ccccc1,inactive: 1.99%
19,Cc1cc(NC(=O)c2ccc3c(c2)N(Cc2cccc(Cl)c2)C(=O)c2ccccc2S3(=O)=O)ccc1Br,inactive: 8.09%
20,O=C(CS(=O)(=O)c1cccc2nsnc12)N1CCN(c2ccccc2F)CC1,inactive: -3.69%
21,O=C(Nc1ccc(Cl)cc1)C1CCC(CNS(=O)(=O)c2ccc(Br)s2)CC1 (configuration not stated),inactive: 7.61%
22,O=c1c2cc3c(cc2nc2sc(Nc4ccccc4)nn12)OCO3,inactive: 15%
23,COc1ccc(NC(=O)CN2CCN(CC(=O)Nc3ccccc3F)CC2)c(OC)c1,inactive: 1.76%
24,CC1CCN(S(=O)(=O)c2ccc3c(c2)c(=O)c(C(=O)N2CCN(c4cccc(Cl)c4)CC2)cn3C)CC1,inactive: 12.6%
25,CCOC(=O)c1c(C)oc2nc(C)nc(NCCc3ccc(OCC)c(OCC)c3)c12,inactive: -5.91%

row,SMILES,"activity change, negative = cytotoxicity"
1,COC(=O)c1ccc(NC(=O)CSc2cn(CC(=O)N3CCCCC3)c3ccccc23)cc1,inactive: 10.2%
2,COc1ccc(N2CCN(c3ncnc4c3cnn4-c3ccc(F)cc3)CC2)cc1,inactive: 4.72%
3,COc1ccc(S(=O)(=O)c2c(Nc3cccc(C)c3C)sc(C(=O)c3ccccc3)c2N)cc1,inactive: -21.8%
4,COc1ccc(-c2nc(SCC(=O)NC(C)CCc3ccccc3)n[nH]2)cc1 (configuration not stated),inactive: -21.6%
5,Cc1ccc(Nc2cc(C(=O)NCCc3ccccc3)c3ccccc3n2)c(C)c1,inactive: 12.5%
6,CC1CCN(C(c2ccccc2)c2sc3nc(-c4ccco4)nn3c2O)CC1 (configuration not stated),inactive: 5.81%
7,COc1ccc(CNS(=O)(=O)c2cc3c(cc2Cl)N(C(C)=O)CCO3)cc1,inactive: 8.82%
8,O=C(CSc1nc(-c2ccccc2)cn1-c1ccccc1F)Nc1ccc(F)cc1,inactive: -5.58%
9,Cc1ccccc1Cn1c(COc2ccc(Cl)cc2)nc2ccccc21,inactive: 28.3%
10,Cc1nc2ccc(S(=O)(=O)N(C)CC(=O)Nc3ccc(C(C)C)cc3)cc2s1,inactive: -19.5%
11,COc1ccc(CNC(=O)C2CCN(c3nnc(-n4c(C)ccc4C)s3)CC2)c(OC)c1,inactive: -17.4%
12,O=C(Nc1cccc(F)c1)C1CCCN(S(=O)(=O)c2cccc3cccnc23)C1 (configuration not stated),inactive: -29.8%
13,CCCCC(=O)Nc1c(C(=O)N2CCN(c3ccccc3F)CC2)oc2ccccc12,inactive: -16.2%
14,CCCOC(=O)c1cccc(NC(=O)c2c(-c3ccccc3Cl)noc2C)c1,inactive: -4.62%
15,O=C(Cn1nc(-c2ccc(Cl)cc2)c2ccccc2c1=O)Nc1cccc(Br)c1,inactive: -0.268%
16,COc1cc2c(cc1OC)CN(C(=O)Nc1ccccc1)CC2,inactive: -7.12%
17,CCS(=O)(=O)Nc1ccc(-c2cn3ccsc3n2)cc1,inactive: 3.06%
18,COc1ccc(-c2nc3sc(CCNC(=O)c4ccco4)c(C)n3n2)cc1,inactive: 2.34%
19,Cc1cccc(N2CCN(S(=O)(=O)c3c(C)nc4scc(C)n4c3=O)CC2)c1C,inactive: 2.62%
20,COc1ccccc1NC(=O)c1ccc(COc2ccc(C)c(C)c2)o1,inactive: 11.8%
21,O=C(Nc1cccc(C(F)(F)F)c1)c1ccc2c(c1)nnn2C1CCCC1,inactive: 28%
22,COc1ccc(S(=O)(=O)NCCc2nnc3ccc(SCC(=O)Nc4ccccc4C)nn23)cc1,inactive: -1.58%
